Reference: PubChem BioAssay AID588591 (National Center for Advancing Translational Sciences (NCATS), 2011)
Out of some 390,000 compounds screened, about 4,700 (1.2%) were called active. The shares of active, inactive and inconclusive entries below differ from those in the screen. The call rests on the fitted dose curve; in most records, active means well fitted inhibition curve with a large enough effect; inconclusive means small, poorly fitted or top-dose-only effect, or another doubt; inactive means no such curve, though single readings can be large or run the other way. Potencies of inconclusive entries are doubtful fits and often do not repeat.

The compounds below were run against DNA polymerase eta (Homo sapiens) (UniProt Q9Y253) (assay: qHTS for Inhibitors of Polymerase Eta). Conditions: recombinant Pol eta, fluorescent DNA replication assay; series mostly up to 114 µM; activity change, negative = inhibition: at the top concentration.
Summary of the method: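 Fluorescent replication assay: 50 nM final substrate added after a 15 min room-temperature compound preincubation with 10 nM enzyme. Signal taken at 0 min and again at 10 min.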
On the % scale 0 is the no-effect control and ±100 the full control effect; potency means the concentration at half of the fitted maximal effect; tags describe the fitted curve by direction and shape.

Chain of UniProt Q9Y253 (Q9Y253 whole entry, looked up): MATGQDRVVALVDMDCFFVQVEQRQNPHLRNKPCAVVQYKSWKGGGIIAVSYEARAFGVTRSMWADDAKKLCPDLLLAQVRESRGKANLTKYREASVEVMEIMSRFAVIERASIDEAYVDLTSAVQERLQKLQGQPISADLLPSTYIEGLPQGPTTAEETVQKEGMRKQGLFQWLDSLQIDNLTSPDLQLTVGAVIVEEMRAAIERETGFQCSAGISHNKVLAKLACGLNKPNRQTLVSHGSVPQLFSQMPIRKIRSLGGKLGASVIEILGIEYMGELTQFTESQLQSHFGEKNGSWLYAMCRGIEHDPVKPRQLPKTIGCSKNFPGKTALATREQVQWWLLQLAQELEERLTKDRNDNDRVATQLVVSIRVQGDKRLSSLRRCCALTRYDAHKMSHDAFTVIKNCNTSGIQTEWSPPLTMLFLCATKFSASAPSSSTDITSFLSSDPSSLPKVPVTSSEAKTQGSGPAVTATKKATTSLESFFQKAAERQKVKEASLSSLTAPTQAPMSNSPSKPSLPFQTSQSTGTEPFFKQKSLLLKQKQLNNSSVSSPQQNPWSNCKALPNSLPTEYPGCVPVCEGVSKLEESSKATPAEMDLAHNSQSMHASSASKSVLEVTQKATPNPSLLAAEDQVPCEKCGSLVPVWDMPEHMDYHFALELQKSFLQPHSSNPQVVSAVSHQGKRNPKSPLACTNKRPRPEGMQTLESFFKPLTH

SMILES	activity change, negative = inhibition	Potency
Cc1c(C(=O)NC(C)c2ccccn2)oc2c(Cl)cccc12 (stereo not drawn)	inactive: 6.03%	–
O=C(C1=C(O)C(=O)N(Cc2ccco2)C1c1cccnc1)c1cc2ccccc2o1 (stereo not drawn)	–	inconclusive: 7.08 µM [inhibitor, full curve, poor fit]
Cc1cc[n+](-c2[nH]c(=O)sc2/C=N/NC(=O)c2ccccc2[O-])cc1C	–	inconclusive: 31.6 µM [inhibitor, partial curve, poor fit]
O=C(OCc1cc(=O)oc2cc(O)ccc12)c1cc(S(=O)(=O)N2CCOCC2)ccc1F	–	inconclusive: 50.1 µM [inhibitor, partial curve]
COCCN=c1scc(-c2ccco2)n1/N=C/c1ccc(O)c(O)c1O	–	active: 4.47 µM
O=C(COc1coc(CN2CCc3ccccc3C2)cc1=O)Nc1ccc(Cl)cc1	–	inconclusive: 39.8 µM [inhibitor, single point]
CCOc1cc(N2CCOCC2)c(OCC)cc1NC(=O)CC12CC3CC(CC(C3)C1)C2	–	inconclusive: 56.2 µM [inhibitor, partial curve, poor fit]
Cc1oc(C)c2c(=O)ccc3c(c12)OC(N)=C(C#N)C3c1ccccc1Cl (stereo not drawn)	–	inconclusive: 14.1 µM [inhibitor, full curve, poor fit]
C/C(=N\Nc1ccc(C(=O)O)cc1)c1ccc(-n2ccnc2)cc1	–	inconclusive: 56.2 µM [inhibitor, partial curve, poor fit]
COc1cc(C(=O)OCC(=O)N2CC(C)OC(C)C2)cc(OC)c1OC (stereo not drawn)	inactive: -12.4%	–
CCC(ONc1ccccc1C(F)(F)F)(C(=O)NN(C)C)c1ccccc1 (stereo not drawn)	inactive: -16.6%	–
CCCCc1ccc(NC(=O)CSc2nc(=O)n3cc(C)ccc3n2)cc1	–	inconclusive: 79.4 µM [inhibitor, partial curve]
CC(=O)N1CCC2(CC1)OC(=O)C(C)=C2C(=O)Nc1cccc(Cl)c1C	inactive: -4.47%	–
Cc1cc(C)c2nc(-c3ccccn3)cc(C(=O)Nc3ccc(S(=O)(=O)Nc4onc(C)c4C)cc3)c2c1	–	active: 8.91 µM
CCC(C)n1cnc2c(c1=O)c1nc3ccccc3nc1n2Cc1ccc(OC)cc1 (stereo not drawn)	inactive: -26.3%	–
CCn1c(CCc2nc3ccccc3[nH]2)n[nH]c1=S	inactive: -2.11%	–
O=C(Cn1c(=O)oc2ccccc21)Nc1ccc(Cl)cc1	–	inconclusive: 8.91 µM [inhibitor, partial curve, poor fit]
O=C1c2ccccc2NC(c2ccc(-c3ccc(F)cc3)o2)N1O (stereo not drawn)	inactive: -5.11%	–
Cc1ccc(CNC(=O)CSc2nc(=O)n3ccc(C)cc3n2)cc1	–	active: 28.2 µM
Cc1ccc(CCNC(=O)CCN2N=C(c3ccc(C)cc3)CCC2=O)cc1	inactive: -12.9%	–
O=C(CSc1n[nH]c(=O)[nH]c1=O)Nc1ccc2c(c1)C(=O)c1ccccc1C2=O	–	active: 8.91 µM
CC1=C(C(=O)OC(C)C)C(c2ccc(C)o2)NC(=O)N1 (stereo not drawn)	inactive: 3.04%	–
COc1ccc2[nH]c(C(=O)N/N=C/c3ccc(OC)c(O)c3)cc2c1	–	inconclusive: 31.6 µM [inhibitor, partial curve, poor fit]

SMILES	activity change, negative = inhibition	Potency
COc1ccc(C2CC(c3ccccc3OC(C)=O)=NN2C(=O)/C=C/c2ccccc2)cc1OC (stereo not drawn)	–	inconclusive: 89.1 µM [inhibitor, partial curve, poor fit]
COc1ccc(-n2c(C)cc(/C=C3\SC(=S)NC3=O)c2C)cc1	–	inconclusive: 25.1 µM [inhibitor, single point]
O=C(O)CCC(=O)Nc1ccc(-c2csc(Nc3cccc4ccccc34)n2)cc1	–	inconclusive: 79.4 µM [inhibitor, partial curve, poor fit]
COc1cccc(N2CC(C(=O)Nc3nnc(SCc4ccccn4)s3)CC2=O)c1 (stereo not drawn)	inactive: 4.43%	–
CN=c1scc(-c2ccc(F)cc2)n1/N=C/c1ccc(O)c(O)c1	–	inconclusive: 39.8 µM [inhibitor, partial curve, poor fit]
COc1cc2c(cc1OC)C(COc1ccc3c(C)cc(=O)oc3c1)N(C(=O)Cc1ccc(F)cc1)CC2 (stereo not drawn)	inactive: -15.3%	–
CCOCC(=O)Nc1nc(C)cc(C)n1	–	inconclusive: 17.8 µM [inhibitor, full curve, poor fit]
O=C(NCCCC(NC(=O)OCc1ccccc1)C(=O)O)OCc1ccccc1 (stereo not drawn)	inactive: -23.8%	–
O=C(O)c1ccc2c3c(cccc13)C(=O)N(OS(=O)(=O)c1ccccc1)C2=O	–	inconclusive: 25.1 µM [inhibitor, full curve, poor fit]
CC(C)c1ccc(C2C(C(=O)c3ccco3)=C(O)C(=O)N2CC2CCCO2)cc1 (stereo not drawn)	inactive: -8.95%	–
O=S(=O)(NCCSCc1ccc(Cl)c(Cl)c1)c1ccc2c(c1)OCCO2	–	inconclusive: 50.1 µM [inhibitor, partial curve, poor fit]
Cc1ccc(Cn2nnc3c(=O)n(CC(=O)NCc4ccco4)cnc32)cc1	–	inconclusive: 17.8 µM [inhibitor, partial curve, poor fit]
CCCOC(=O)c1ccc(OCC(O)Cn2c(C)nc3ccccc32)cc1 (stereo not drawn)	–	inconclusive: 79.4 µM [inhibitor, partial curve, poor fit]
COc1ccc(C(=O)c2ccccc2)c(O)c1	inactive: -8.72%	–
C[C@@]12C(=O)N(c3ccccc3)C(=O)N1[C@@H]1c3ccccc3OC[C@@H]1[C@H]2c1ccccc1	–	inconclusive: 89.1 µM [inhibitor, partial curve, poor fit]
COc1ccc(Cl)cc1NC(=O)CSc1sc2c(O)cc(=O)[nH]c2c1C#N	–	active: 25.1 µM
Cc1ccc(CNC(=O)c2ccc(Cl)c(S(N)(=O)=O)c2)n1C	–	inconclusive: 56.2 µM [inhibitor, partial curve, poor fit]
CN(CC(=O)Nc1cccc(F)c1)C(=O)CSc1ccccc1F	inactive: -15.8%	–
Cc1ccc(-c2cc(C(=O)NCc3ccco3)c3ccccc3n2)s1	–	inconclusive: 12.6 µM [inhibitor, partial curve]
COc1cccc(CNC(=O)CN2c3cccc4cccc(c34)S2(=O)=O)c1	–	active: 14.1 µM
O=C(N/N=C/c1ccc(O)c(O)c1)c1ccc(-n2cnnn2)cc1	–	active: 22.4 µM
O=C(CCc1ccc(CCC(=O)c2cccs2)s1)c1cccs1	–	inconclusive: 31.6 µM [inhibitor, partial curve, poor fit]
Cc1ccc(NC(=O)c2c3c(nc4ccccc24)CCC3)cc1S(=O)(=O)N(C)C	–	inconclusive: 56.2 µM [inhibitor, partial curve, poor fit]

SMILES	activity change, negative = inhibition	Potency
O=C(Nc1ccc(C(=O)O)cc1)/C(=C\C=C\c1ccccc1)NC(=O)c1ccc(Br)cc1	–	inconclusive: 89.1 µM [inhibitor, single point]
CCc1nnc(N/N=C/c2cccs2)n1N	inactive: -11.1%	–
O=C(COC(=O)Cc1ccc(S(=O)(=O)N2CCOCC2)s1)NCCc1ccccc1	–	active: 79.4 µM
CCOc1ccc(CNC(=O)c2ccc3c(Cl)c4c(nc3c2)CCCC4)cc1	inactive: -13.2%	–
Cc1cc2c(=O)n(Cc3ccco3)c(SCC(=O)NCc3ccco3)nc2s1	–	inconclusive: 89.1 µM [inhibitor, single point]
CC(C)c1cc(C(=O)N/N=C/c2cccnc2)cs1	–	inconclusive: 89.1 µM [inhibitor, partial curve, poor fit]
CCN(CC)c1ccc(NC(=O)C2CC(=O)N(Cc3ccccc3)C2)cc1 (stereo not drawn)	inactive: -13.1%	–
O=C(Cn1c(=O)n(Cc2ccco2)c(=O)c2c3c(sc21)CCCCC3)c1ccccc1	–	inconclusive: 79.4 µM [inhibitor, partial curve]
CCOC(=O)c1c(C)[nH]c2c1-c1ccccc1C(=O)C2=O	–	active: 3.16 µM
COc1ccccc1C=NN=Cc1ccccc1O	–	inconclusive: 50.1 µM [inhibitor, partial curve, poor fit]
COCCn1c(=O)[nH]c(=O)c2cc(C(=O)c3cc(OC)ccc3O)cnc21	–	inconclusive: 28.2 µM [inhibitor, single point]
O=C1Nc2ccccc2/C1=N/N=C/c1ccc(-c2ccc([N+](=O)[O-])cc2)o1	–	inconclusive: 44.7 µM [inhibitor, partial curve, poor fit]
CCN(C[C@H]1N[C@@](Cc2ccccc2)(C(=O)OC)[C@H]2C(=O)N(Cc3ccccc3)C(=O)[C@@H]12)C(=O)C1CCCCC1	–	inconclusive: 35.5 µM [inhibitor, partial curve, poor fit]
O=C(COC(=O)COc1ccc(Cl)cc1)NC1CCCC1	inactive: -6.82%	–
COc1ccc2cc(S(=O)(=O)n3cnc(C)c3)ccc2c1	inactive: -21.5%	–
Cc1ccc2c(CC(=O)OCc3cc(=O)n4c(n3)sc3ccccc34)coc2c1	–	active: 10 µM
CCOC(=O)N1CC=C2C(C#N)=C(N)C(C#N)(C#N)[C@H](c3ccc(OC(C)C)c(OCC)c3)[C@H]2C1	–	inconclusive: 25.1 µM [inhibitor, partial curve, poor fit]
Cc1ccc(C2(C)NC(=O)N(CC(=O)Nc3ccc4[nH]c(=O)[nH]c4c3)C2=O)cc1 (stereo not drawn)	–	inconclusive: 17.8 µM [inhibitor, partial curve, poor fit]
CCOc1cccc(-c2c(C(=O)N/N=C(\C)c3ccncc3)nnn2-c2nonc2N)c1	–	inconclusive: 89.1 µM [inhibitor, partial curve, poor fit]
Cc1ccc(S(=O)(=O)NC2OC(=O)C(Cl)=C2Cl)cc1 (stereo not drawn)	–	inconclusive: 17.8 µM [inhibitor, full curve, poor fit]
O=C1C(N2CCOCC2)=C(n2nnc3ccccc32)C(=O)c2ccccc21	–	active: 44.7 µM
O=C(CSc1ccc(Cl)cc1)Nc1ccc(N2CCN(C(=O)c3ccco3)CC2)cc1	–	inconclusive: 35.5 µM [inhibitor, single point]
